# Data: the supplement of paper PMC8728848
# The other results are listed elsewhere or left out.
# B1: Cp ZmpB (Clostridium perfringens), Q0TR08 (protein)
# chain: MNKRKIAAIILATMITNLSATTIDVLAQELNTKNNSKVEVSHDDESHQARVSKFDLYNSDKLDAYNQEFQVSRSNIKSINNNGGKYNSSTIDKAIDGNLETHWETGKPNDANFTNEVVVTFNEITNIDRIVYSARRDSARGKGFAKEFEIYASLKDEGDDFNLVSSGEYTESTRDLVEIKFNPTDFKRLKFKFKKADQNWASAAEFMFYKEDKLNEKFNGLFTDSSMNKVSEEFNTLEKLNAFENELKDHPIYDLYKEGLNNARAILTETSENPTKATLGQITYNLNDDYNNQYRMPYKNIKAIKNNGRHYAAQNIEKAIDNDVNTYWETGTLNSSSFNNEVEVEFNDLVTLDRIVYGSRQSDLKGFAEEVYIYASRTSKGDTYKLVATGAHEATKGLVEAKFEPTEFKRVKFKFKKSKQNSATLNELMFYKPDEVYSSIPKLFTDGTMSELSEEFNSLEKINAFKEKAKNHPLYNDFNETIELAESLISNPRKEDVLELEMRGDSISEAKKRKVWNFQDWQITGLSARAGDKITVYVDVAEGDPTPTLLYKQSLTQHGGATSFQLKPGKNEITIPEINYESNGIPKDVIQGGDLFFTNYKSDSQKRAPKVRIEGASKYPVFILGKSDENEVMKELEAYVEKIKAEPKTTPNIFAVSSNKSLEFVQATYALDWYKKNNKTPKYTAEQWDQYIADAMGFWGFDNSKDVNSDFNFRIMPMVKNLSGGAFMNAGNGVIGIRPGNQDAILAANKGWGVAHELGHNFDTGGRTIVEVTNNMMPLFFESKYKTKTRITDQNIWENNTYPKVGLDDYSNNELYNKADSTHLAQLAPLWQLYLYDNTFYGKFERQFRERDFGNKNREDIYKSWVVAASDAMELDLTEFFARHGIRVDDKVKEDLAKYPKPDKKIYYLNDLAMNYKGDGFTENAKVSVSTSGSNGNIKLSFSVDDENKDNILGYEIRRDGKYVGFTSNDSFVDTKSNLDEDGVYVVTPYDRKLNTLNPIEVNALQPTLSVNPVITLALGEEFNEEEYIVAKDIKGNSLSESVKVKSSNVNTSKVGEYEVLYSLEDSKGNEYTKTSKVNVVSRKEYMSDLTPKQSSNGWGTVRKDKSISGGVIGLTRDGDFVDYNKGLGLHSNAEYVYDLEGKDYDYFESYVGVDKAMSSRPASSVIFKVLVDGEEKFNSGVMRSTTPQKYVKVDVKNAKELKLIVNDAGDGDSSDHASFGDAKLATLSSKPIIKGENLAYSMDEKVDLMKGITATDIEDGNITSKVQIKSSDFVEGKSGIFTVVYSVTDSDGLTSECSRTIAVTDKETQLSDLNWKSATIGSGSVRKDRAVSGNQIRLLNEDNSVETFAKGIGTHSYSEIVYNSEGYDIFDTWVGIDRHVADKKVSSVKFKVYVDGELKAETDVMRIDTPKKRLVVDVRNSKEIKLVVDVADNGNNWDHADWADAKFRNLAEYDASELNKAIEEAKKLDLNNYTEESSEALKNAISKGEEALLSKDKETINSALEELNKEMNSLVKVDLNAVINIPDKYLLKSIQNQLNKTGDITLGDMYSLTTLTLSGVEDLTGLENAKNLETLNMDYNEVKDLRPLSKLKKLNTLNAQEQFIAAGELKPSNGKVIGDSKVYNREGKNVAKTIRVVDKNGNTILEQDAKDEFTINTKDLSSGLYGVHVLFEDEGFSGVMFYLFNV
# Key:
# Experiment in all cases: glycan array binding signal (z-score within array); higher = stronger binding
# Conditions in all cases: glycan notation: IUPAC condensed, linker removed
# [1] = target: Fuc(a1-2)[Gal(a1-3)]Gal(b1-3)GlcNAc
# How it was run: (§1)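 From the Consortium for Functional Glycomics database, 3228 arrays were curated, keeping only those whose protein sequence was available. Binding is given as a within-array Z-score averaged across arrays sharing a protein sequence and across linkers. Negative Z-scores can be read as non-binding.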
# [2] = target: Fuc(a1-2)[Gal(a1-3)]Gal(b1-3)GlcNAc(b1-2)Man(a1-3)[Fuc(a1-2)[Gal(a1-3)]Gal(b1-3)GlcNAc(b1-2)Man(a1-6)]Man(b1-4)GlcNAc(b1-4)GlcNAc
# How it was run: as §1
# [3] = target: Fuc(a1-2)[Gal(a1-3)]Gal(b1-3)GlcNAc(b1-2)Man(a1-3)[Fuc(a1-2)[Gal(a1-3)]Gal(b1-3)GlcNAc(b1-2)Man(a1-6)]Man(b1-4)GlcNAc(b1-4)[Fuc(a1-6)]GlcNAc
# How it was run: as §1
# [4] = target: Fuc(a1-2)[Gal(a1-3)]Gal(b1-3)GlcNAc(b1-3)GalNAc
# How it was run: as §1
# [5] = target: Fuc(a1-2)[Gal(a1-3)]Gal(b1-3)GlcNAc(b1-6)GalNAc
# How it was run: as §1
# [6] = target: Fuc(a1-2)[Gal(a1-3)]Gal(b1-4)Glc
# How it was run: as §1
# [7] = target: Fuc(a1-2)[Gal(a1-3)]Gal(b1-4)GlcNAc
# How it was run: as §1
# [8] = target: Fuc(a1-2)[Gal(a1-3)]Gal(b1-4)GlcNAc(b1-2)Man
# How it was run: as §1
# [9] = target: Fuc(a1-2)[Gal(a1-3)]Gal(b1-4)GlcNAc(b1-2)Man(a1-3)[Fuc(a1-2)[Gal(a1-3)]Gal(b1-4)GlcNAc(b1-2)Man(a1-6)]Man(b1-4)GlcNAc(b1-4)GlcNAc
# How it was run: as §1
# [10] = target: Fuc(a1-2)[Gal(a1-3)]Gal(b1-4)GlcNAc(b1-2)Man(a1-3)[Fuc(a1-2)[Gal(a1-3)]Gal(b1-4)GlcNAc(b1-2)Man(a1-6)]Man(b1-4)GlcNAc(b1-4)[Fuc(a1-6)]GlcNAc
# How it was run: as §1
# [11] = target: Fuc(a1-2)[Gal(a1-3)]Gal(b1-4)GlcNAc(b1-3)GalNAc
# How it was run: as §1
# [12] = target: Fuc(a1-2)[Gal(a1-3)]Gal(b1-4)GlcNAc(b1-3)[Fuc(a1-2)[Gal(a1-3)]Gal(b1-4)GlcNAc(b1-6)]GalNAc
# How it was run: as §1
# [13] = target: Fuc(a1-2)[Gal(a1-3)]Gal(b1-4)GlcNAc(b1-6)GalNAc
# How it was run: as §1
# [14] = target: Fuc(a1-2)[Gal(a1-3)]Gal(b1-4)[Fuc(a1-3)]Glc
# How it was run: as §1
# [15] = target: Fuc(a1-2)[Gal(a1-3)]Gal(b1-4)[Fuc(a1-3)]GlcNAc
# How it was run: as §1
# [16] = target: Fuc(a1-2)[Gal(a1-3)]Gal(b1-4)[Fuc(a1-3)]GlcNAc(b1-3)GalNAc
# How it was run: as §1
# [17] = target: Fuc(a1-2)[Gal(a1-4)]Gal(b1-4)GlcNAc
# How it was run: as §1
# [18] = target: Fuc(a1-2)[GalNAc(a1-3)]Gal
# How it was run: as §1
# [19] = target: Fuc(a1-2)[GalNAc(a1-3)]Gal(b1-3)GalNAc(a1-3)[Fuc(a1-2)]Gal(b1-4)GlcNAc
# How it was run: as §1
# [20] = target: Fuc(a1-2)[GalNAc(a1-3)]Gal(b1-3)GalNAc(b1-3)Gal(a1-4)Gal(b1-4)Glc
# How it was run: as §1
# [21] = target: Fuc(a1-2)[GalNAc(a1-3)]Gal(b1-3)GlcNAc
# How it was run: as §1
# [22] = target: Fuc(a1-2)[GalNAc(a1-3)]Gal(b1-3)GlcNAc(b1-2)Man(a1-3)[Fuc(a1-2)[GalNAc(a1-3)]Gal(b1-3)GlcNAc(b1-2)Man(a1-6)]Man(b1-4)GlcNAc(b1-4)GlcNAc
# How it was run: as §1
# [23] = target: Fuc(a1-2)[GalNAc(a1-3)]Gal(b1-3)GlcNAc(b1-2)Man(a1-3)[Fuc(a1-2)[GalNAc(a1-3)]Gal(b1-3)GlcNAc(b1-2)Man(a1-6)]Man(b1-4)GlcNAc(b1-4)[Fuc(a1-6)]GlcNAc
# How it was run: as §1
binder,measurement,setting,value
B1,glycan array binding signal (z-score),[1],-0.118
same,glycan array binding signal (z-score),[2],-0.346
same,glycan array binding signal (z-score),[3],-0.03
same,glycan array binding signal (z-score),[4],0.227
same,glycan array binding signal (z-score),[5],0.261
same,glycan array binding signal (z-score),[6],0.009
same,glycan array binding signal (z-score),[7],0.021
same,glycan array binding signal (z-score),[8],0.008
same,glycan array binding signal (z-score),[9],-0.091
same,glycan array binding signal (z-score),[10],-0.06
same,glycan array binding signal (z-score),[11],0.312
same,glycan array binding signal (z-score),[12],0.081
same,glycan array binding signal (z-score),[13],-0.395
same,glycan array binding signal (z-score),[14],-0.23
same,glycan array binding signal (z-score),[15],0.005
same,glycan array binding signal (z-score),[16],-0.075
same,glycan array binding signal (z-score),[17],-0.277
same,glycan array binding signal (z-score),[18],-0.12
same,glycan array binding signal (z-score),[19],0.06
same,glycan array binding signal (z-score),[20],-0.231
same,glycan array binding signal (z-score),[21],0.286
same,glycan array binding signal (z-score),[22],0.371
same,glycan array binding signal (z-score),[23],-0.379
